Test results published in the supplement of paper PMC11417369.
± gives the standard deviation of the averaged measurements. Some of the results follow.

test system: PfAP2-I AP2 domain 3 (GST-tagged); test: gcPBM binding intensity (ln(normalized median fluorescence intensity)); higher = stronger DNA binding
Summary of the method: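 DNA-binding domains from P. falciparum, fused to GST and produced in E. coli, were put on an Agilent 4 × 180k double-stranded probe array for 1 h in 1× PBS holding 1% milk, 0.2 mg/ml BSA, 0.5% salmon testes DNA and 0.03% Triton X-100. Probes were primer-extended, 36 bp long and drawn from intergenic genomic regions, with negative controls included. After Alexa488 anti-GST antibody detection and a 488 nm scan, binding intensity was set as the highest Masliner-normalised natural-log median intensity across replicate spots of either probe orientation.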

Sequence | gcPBM binding intensity (ln)
AACATATTGGATTTAGTGCACATATATATCATAATA | 11.5 ± 0.29
AAAAATTACCCTTGTGTACACATATATTATCTGTAT [CACACA_site4513] | 8.37 ± 0.5
ATATATATAGATCGAAGTACAGATAGAATGAAAATA [XGTACX_site2695] | 8.09 ± 0.65
TAAAAAAATTTTACAAGTACAAAAAAATGTAATAAA [XGTACX_site4829] | 7.91 ± 0.38
ACAAGAGAAAAAAATACACACAAGATAAAAATGTAT [CACACA_site607] | 7.75 ± 0.69
ATATATCATCATGTATGTACACACATACATATATTA [XGTACX_site2814] | 8.03 ± 0.5
TATGCTTTTACAATGTGTACTTATATTTTTCACAGG [XGTACX_site6201] | 8.205 ± 0.078
TAATTTTCAATAATTTGTACATAATTTTTATAAATT [XGTACX_site8133] | 7.49 ± 0.3
AACCATAAAAAGTGTACACATATAAAAAATATGGAA [CACACA_site4199] | 8.04 ± 0.71
TATATAAATTAACCAGTGCATTATTTGGAAATTATT | 11.1 ± 0.59
TTCTGACCAATGCTATAAAATAATACAAAAGAAAAA [GTGCAC_negctrl_site3] | 7.83 ± 0.35
TGAAGAGGAAACAAACAAAATGAATAATTAAAAAGG [CACACA_negctrl_site1601] | 7.88 ± 0.8
TATATCCACATTTTTAGTACTTAAAAATAAATAAAC [XGTACX_site3826] | 8.01 ± 0.34
TTTCTTCATTTTTTCACACATAAGAAAATATAATCA [CACACA_site4275] | 7.95 ± 0.44
AAGGAAAACAATAGGTGTACCAAACGTCCTAGGAAC [XGTACX_site5732] | 7.75 ± 0.77
AAAAAAGCAATATGATGTACATTTACTTTGTGAAAG [XGTACX_site4450] | 7.58 ± 0.63
TAAAAAAATAAAATTACACACATATATAAATATATA [CACACA_site2620] | 7.26 ± 0.34
AAATATTATAAAAAGGTGCATTTTTATTATATGAGT | 10.5 ± 0.35
CTAGGTATGCTTTAAACATGCAAAAATACAAATTAC [TGCATGCA_site239] | 7.97 ± 0.76

Sequence | gcPBM binding intensity (ln)
ATATATAAATATATTTGTACATATAATATGTATTAT [XGTACX_site8820] | 7.75 ± 0.47
AATTTAAAAAAAATCACACACAGAAAAAAAAAAAAA [CACACA_site2322] | 8.21 ± 0.9
ATATATGTTTTTATATGTACTTATAATGTGTGTATA [XGTACX_site5165] | 7.86 ± 0.092
GATAAATTAAAACACACACACATATATATATATATA [CACACA_site3962] | 9.44 ± 0.52
AAAAAAATAGTCTTCTTGCACTTTTTAATTTATTTT | 8.91 ± 0.36
TTATAATAAAATGAATATATATAATTTAAAATATTT [CACACA_negctrl_site1651] | 7.36 ± 0.55
AAAAAAAGTTATATTACACACTTTATTCGTTAACTT [CACACA_site3013] | 7.83 ± 0.67
ATATTTATGAAGTTCACACATATATATATATATATA [CACACA_site5954] | 9.59 ± 0.75
ACAACAATATTTGAATGTACTCTATTTTCGTTGTTC [XGTACX_site593] | 7.76 ± 0.52
ATACACACTCAAAAAAGTACTTAACTACATGAATTG [XGTACX_site6366] | 7.79 ± 0.55
CTCAAAGGAATATTCACACATAAATTATAGACTACA [CACACA_site6050] | 7.53 ± 0.45
TAATTATATTCACTTGCTATATAAATTATATATATT [CACACA_negctrl_site526] | 7.72 ± 0.4
GTATATATATATATATGCAAATGTATAAATCTACAT [CACACA_negctrl_site546] | 7.75 ± 0.56
AAGAAAAAAATATATGTTTATTTACTTTAATAATTT [TGCATGCA_negctrl_site168] | 7.36 ± 0.55
TATATATAAATATGCTGTACGTTTTAATACGTTAAG [XGTACX_site2378] | 7.86 ± 0.19
TGTGAATAAATAAGCACACATAAACCCATATATAAA [CACACA_site4103] | 8.18 ± 0.26
ATCTAAACAAATAATACACACAATAAAATAGGAAGA [CACACA_site4072] | 7.98 ± 0.78
TAATATTTACATATTACACACACGTATTATTAAATA [CACACA_site6340] | 7.8 ± 0.4
TATTTTTTAAAAATGGGTACACATAAATAAATAAAT [XGTACX_site7643] | 8.32 ± 0.54

Sequence | gcPBM binding intensity (ln)
AAGAAAAATTTAAACTGTACTTGTTTTCCAATGAAC [XGTACX_site4443] | 8.12 ± 0.18
AAAAAAAAAAAAGTTACACACAAATAAAATATTTGG [CACACA_site694] | 7.46 ± 0.3
ATTATTCATTTATGTAGTACATTTTAATACATTTAA [XGTACX_site3599] | 7.75 ± 0.6
ATAAAAAAAAATAAATGTACAAATTAACAAAATAAT [XGTACX_site5048] | 7.92 ± 0.61
AATCACCAAATATGTACACACCTTAACATGTTTATA [CACACA_site5180] | 8.14 ± 0.64
ATTTATTAAATTTATAGTACTCAAAGATTTTTATTT [XGTACX_site6661] | 7.58 ± 0.39
AAATAAAACAATTAACGTACAAGCATATATATATAT [XGTACX_site8508] | 9.43 ± 0.2
AAATAAAAAAAAATAGCACACATAAATATATTATAT [CACACA_site8155] | 8.04 ± 0.54
TATATATATATTATATGTACACAAGGAAATATGCAT [XGTACX_site5637] | 8.73 ± 0.2
TATGTATAATTATTTTGTACTTATTAAATTTTTTTT [XGTACX_site5413] | 7.43 ± 0.23
ATCTATGAAAAAGGTACATGCAATAAAGAAACATAT [TGCATGCA_site805] | 8.35 ± 0.78
TTATAATCAATGAATACACACATATATTTCATTAAT [CACACA_site5909] | 7.51 ± 0.52
TAATAATAGAGACACACACACATAGACATATAAATA [CACACA_site6729] | 7.78 ± 0.51
TTATACTATTTTTATACATGCATTTCTATATATTTT [TGCATGCA_site316] | 8.57 ± 0.82
TTCAAAATAAAAAATTCACACACATATATATATATA [CACACA_site8653] | 9.28 ± 0.39
CTAAAATACGGACACACACACACATATATATATATA [CACACA_site6138] | 9.71 ± 0.19
AAAAAAAAAAAAAACACACACACAAAAAAAAATATA [CACACA_site1104] | 8.22 ± 0.52
ATTATCTCCGCCATGTGGACACATATAAGACATTTT [XGTACX_site2889] | 8.23 ± 0.54
ATTGTATATAAATGAGTGCATACTATGTTGTTCTTA [GTGCAC_site9678] | 8.87 ± 0.25
